Measurements as given in US12577227B2, “WDR5 inhibitors and modulators” (Vanderbilt University, priority 2019, dated 2026).

biological target: WDR5 (Homo sapiens, UniProt P61964); experiment: TR-FRET competition assay (MLL peptide binding, displacement of 10mer-Thr-FAM probe); conditions: WDR5-His tag (Δ23, residues 24-334) 2 nM; 10mer-Thr-FAM 150 nM; Tb-anti-HIS 1 nM; 60 minutes room temperature; pH 7.2; read-out: Ki for Inhibition of WDR5 by TR-FRET assay

Row | Structure (SMILES) | Ki [pM]
1 | COc1cc(CN2CCOc3c(cc(CNc4ccccn4)cc3-c3ccc(F)cc3C)C2=O)cc(OC)c1 [Example 10, 4-(3,5-Dimethoxybenzyl)-9-(4-fluoro-2-methylphenyl)-7-((pyridin-2-ylamino)methyl)-3,4-dihydrobenzo[f][1,4]oxazepin-5(2H)-one] | > 33000
2 | Cc1cc(C)nc(CN2CCOc3c(cc(Cn4ccnc4C)cc3-c3cc(C)ccc3C)C2=O)c1 [Example 49, 9-(2,5-Dimethylphenyl)-4-((4,6-dimethylpyridin-2-yl)methyl)-7-((2-methyl-1H-imidazol-1-yl)methyl)-3,4-dihydrobenzo[f][1,4]oxazepin-5(2H)-one] | < 50
3 | COc1ccc2c(c1)C(N1CCOc3c(cc(Cn4ccnc4C)cc3-c3cn(C)nc3C(F)(F)F)C1=O)CCC2 (centres unmarked) [Example 57, 4-(7-Methoxy-1,2,3,4-tetrahydronaphthalen-1-yl)-7-((2-methyl-1H-imidazol-1-yl)methyl)-9-(1-methyl-3-(trifluoromethyl)-1H-pyrazol-4-yl)-3,4-dihydrobenzo[f][1,4]oxazepin-5(2H)-one] | 62
4 | COc1cc(Cn2cnc3c(-c4cn(C)nc4C(F)(F)F)cc(Cn4ccn(C)c4=N)cc3c2=O)cc(OC)c1 [Example 20, 3-(3,5-Dimethoxybenzyl)-6-((2-imino-3-methyl-2,3-dihydro-1H-imidazol-1-yl)methyl)-8-(1-methyl-3-(trifluoromethyl)-1H-pyrazol-4-yl)quinazolin-4(3H)-one] | < 50
5 | Cc1cc(C)nc(CN2CCOc3c(cc(Cn4ccn(C)c4=N)cc3-c3ccc(F)cc3C)C2=O)c1 [Example 12, 4-((4,6-Dimethylpyridin-2-yl)methyl)-9-(4-fluoro-2-methylphenyl)-7-((2-imino-3-methyl-2,3-dihydro-1H-imidazol-1-yl)methyl)-3,4-dihydrobenzo[f][1,4]oxazepin-5(2H)-one] | < 50
6 | Cc1ccnc(CN2CCOc3c(cc(Cn4cnn(C)c4=N)cc3-c3cn(C)nc3C(F)(F)F)C2=O)c1 [Example 32, 7-((5-imino-1-methyl-1,5-dihydro-4H-1,2,4-triazol-4-yl)methyl)-9-(1-methyl-3-(trifluoromethyl)-1H-pyrazol-4-yl)-4-((4-methylpyridin-2-yl)methyl)-3,4-dihydrobenzo[f][1,4]oxazepin-5(2H)-one] | 110
7 | Cc1cc(C)nc(CN2CCOc3c(cc(Cn4ccnc4C)cc3-c3cc(Cl)ccc3C)C2=O)c1 [Example 52, 9-(5-Chloro-2-methylphenyl)-4-((4,6-dimethylpyridin-2-yl)methyl)-7-((2-methyl-1H-imidazol-1-yl)methyl)-3,4-dihydrobenzo[f][1,4]oxazepin-5(2H)-one] | < 50
8 | Cc1ccnc(CN2CCOc3c(cc(Cn4ccnc4C)cc3-c3cn(C)nc3C(F)(F)F)C2=O)c1 [Example 27, 7-((2-Methyl-1H-imidazol-1-yl)methyl)-9-(1-methyl-3-(trifluoromethyl)-1H-pyrazol-4-yl)-4-((4-methylpyridin-2-yl)methyl)-3,4-dihydrobenzo[f][1,4]oxazepin-5(2H)-one] | < 50
9 | Cc1ccnc(CN2C[C@@H](C)Oc3c(cc(Cn4ccnc4C)cc3-c3cn(C)nc3C(F)(F)F)C2=O)c1 [Example 40, (R)-2-Methyl-7-((2-methyl-1H-imidazol-1-yl)methyl)-9-(1-methyl-3-(trifluoromethyl)-1H-pyrazol-4-yl)-4-((4-methylpyridin-2-yl)methyl)-3,4-dihydrobenzo[f][1,4]oxazepin-5(2H)-one] | 120
10 | CCc1cc(OC)c2nccc(N3CCOc4c(cc(Cn5ccnc5)cc4-c4cn(C)nc4C(F)(F)F)C3=O)c2c1 [Example 67, 7-((1H-imidazol-1-yl)methyl)-4-(6-ethyl-8-methoxyquinolin-4-yl)-9-(1-methyl-3-(trifluoromethyl)-1H-pyrazol-4-yl)-3,4-dihydrobenzo[f][1,4]oxazepin-5(2H)-one] | < 50
11 | CCc1nccn1Cc1cc2c(c(-c3cn(CC)nc3C(F)(F)F)c1)OCCN([C@H](c1cc(OC)ccn1)C1CC1)C2=O [Example 61, (S)-4-(Cyclopropyl(4-methoxypyridin-2-yl)methyl)-7-((2-ethyl-1H-imidazol-1-yl)methyl)-9-(1-ethyl-3-(trifluoromethyl)-1H-pyrazol-4-yl)-3,4-dihydrobenzo[f][1,4]oxazepin-5(2H)-one] | < 50
12 | COc1ccnc([C@H](C)N2CCOc3c(cc(Cn4cnn(C)c4=N)cc3-c3cn(C)nc3C(F)(F)F)C2=O)c1 [Example 53, (S)-7-((5-Imino-1-methyl-1,5-dihydro-4H-1,2,4-triazol-4-yl)methyl)-4-(1-(4-methoxypyridin-2-yl)ethyl)-9-(1-methyl-3-(trifluoromethyl)-1H-pyrazol-4-yl)-3,4-dihydrobenzo[f][1,4]oxazepin-5(2H)-one] | < 50
13 | COc1cc(Cn2cnc3c(-c4ccc(F)cc4C)cc(Cn4cnn(C)c4=N)cc3c2=O)cc(OC)c1 [Example 18, 3-(3,5-Dimethoxybenzyl)-8-(4-fluoro-2-methylphenyl)-6-((5-imino-1-methyl-1,5-dihydro-4H-1,2,4-triazol-4-yl)methyl)quinazolin-4(3H)-one] | 400
14 | Cc1cc(C)nc(CN2CCOc3c(cc(Cn4ccnc4C)cc3-c3cccnc3C)C2=O)c1 [Example 44, 4-((4,6-Dimethylpyridin-2-yl)methyl)-7-((2-methyl-1H-imidazol-1-yl)methyl)-9-(2-methylpyridin-3-yl)-3,4-dihydrobenzo[f][1,4]oxazepin-5(2H)-one] | 200
15 | COc1cc(CN2CC(C)Oc3c(cc(Cn4ccn(C)c4=N)cc3-c3ccc(F)cc3C)C2=O)cc(OC)c1 (centres unmarked) [Example 17, 4-(3,5-Dimethoxybenzyl)-9-(4-fluoro-2-methylphenyl)-7-((2-imino-3-methyl-2,3-dihydro-1H-imidazol-1-yl)methyl)-2-methyl-3,4-dihydrobenzo[f][1,4]oxazepin-5(2H)-one] | < 50
16 | COc1ccnc([C@H](C)N2CCOc3c(cc(Cn4cnn(C)c4=N)cc3-c3ccc(F)cc3Cl)C2=O)c1 [Example 54, (S)-9-(2-Chloro-4-fluorophenyl)-7-((5-imino-1-methyl-1,5-dihydro-4H-1,2,4-triazol-4-yl)methyl)-4-(1-(4-methoxypyridin-2-yl)ethyl)-3,4-dihydrobenzo[f][1,4]oxazepin-5(2H)-one] | < 50
17 | Cc1cc(C)nc(CN2CCOc3c(cc(Cn4ccn(C)c4=N)cc3-c3cn(C)nc3C(F)(F)F)C2=O)c1 [Example 22, 4-((4,6-Dimethylpyridin-2-yl)methyl)-7-((2-imino-3-methyl-2,3-dihydro-1H-imidazol-1-yl)methyl)-9-(1-methyl-3-(trifluoromethyl)-1H-pyrazol-4-yl)-3,4-dihydrobenzo[f][1,4]oxazepin-5(2H)-one] | < 50
18 | Cc1cc(C)nc(CN2CCOc3c(cc(Cn4ccnc4C)cc3-c3cccnc3C(F)(F)F)C2=O)c1 [Example 42, 4-((4,6-Dimethylpyridin-2-yl)methyl)-7-((2-methyl-1H-imidazol-1-yl)methyl)-9-(2-(trifluoromethyl)pyridin-3-yl)-3,4-dihydrobenzo[f][1,4]oxazepin-5(2H)-one] | 180
19 | COc1cc(CN2CC(=O)Nc3c(cc(Cn4ccoc4=N)cc3-c3ccc(F)cc3C)C2=O)cc(OC)c1 [Example 30, 4-(3,5-Dimethoxybenzyl)-9-(4-fluoro-2-methylphenyl)-7-((2-iminooxazol-3(2H)-yl)methyl)-3,4-dihydro-1H-benzo[e][1,4]diazepine-2,5-dione] | 160
20 | COc1cc(CN2C[C@@H](C)Oc3c(cc(Cn4ccn(C)c4=N)cc3-c3ccc(F)cc3C)C2=O)cc(OC)c1 [Example 33, (R)-4-(3,5-dimethoxybenzyl)-9-(4-fluoro-2-methylphenyl)-7-((2-imino-3-methyl-2,3-dihydro-1H-imidazol-1-yl)methyl)-2-methyl-3,4-dihydrobenzo[f][1,4]oxazepin-5(2H)-one] | < 50
21 | COc1cc(CN2CCOc3c(cc(Cn4cnn(C)c4=N)cc3-c3cn(C)nc3C(F)(F)F)C2=O)cc(OC)c1 [Example 15, 4-(3,5-Dimethoxybenzyl)-7-((5-imino-1-methyl-1,5-dihydro-4H-1,2,4-triazol-4-yl)methyl)-9-(1-methyl-3-(trifluoromethyl)-1H-pyrazol-4-yl)-3,4-dihydrobenzo[f][1,4]oxazepin-5(2H)-one] | < 50
22 | COc1cc(CN2CC(=O)Nc3c(cc(Cn4ccnc4C)cc3-c3ccc(F)cc3C)C2=O)cc(OC)c1 [Example 28, 4-(3,5-Dimethoxybenzyl)-9-(4-fluoro-2-methylphenyl)-7-((2-methyl-1H-imidazol-1-yl)methyl)-3,4-dihydro-1H-benzo[e][1,4]diazepine-2,5-dione] | 71
23 | COc1cc(CN2CCOc3c(cc(Cn4cnn(C)c4=N)cc3-c3ccc(F)cc3C)C2=O)cc(OC)c1 [Example 6, 4-(3,5-Dimethoxybenzyl)-9-(4-fluoro-2-methylphenyl)-7-((5-imino-1-methyl-1,5-dihydro-4H-1,2,4-triazol-4-yl)methyl)-3,4-dihydrobenzo[f][1,4]oxazepin-5(2H)-one] | < 50
24 | CCn1cc(-c2cc(Cn3ccnc3)cc3c2OCCN([C@H]2CCOc4ccc(OC)cc42)C3=O)c(C(F)(F)F)n1 [Example 63, (S)-7-((1H-imidazol-1-yl)methyl)-9-(1-ethyl-3-(trifluoromethyl)-1H-pyrazol-4-yl)-4-(6-methoxychroman-4-yl)-3,4-dihydrobenzo[f][1,4]oxazepin-5(2H)-one] | < 50
25 | COc1cc(Cn2cnc3c(-c4ccc(F)cc4C)cc(Cn4ccc5cccnc54)cc3c2=O)cc(OC)c1 [Example 5, 6-((1H-Pyrrolo[2,3-b]pyridin-1-yl)methyl)-3-(3,5-dimethoxybenzyl)-8-(4-fluoro-2-methylphenyl)quinazolin-4(3H)-one] | > 33000
26 | COc1cc(CN2CCOc3c(cc(Cn4ccoc4=N)cc3-c3ccc(F)cc3C)C2=O)cc(OC)c1 [Example 9, 4-(3,5-Dimethoxybenzyl)-9-(4-fluoro-2-methylphenyl)-7-((2-iminooxazol-3(2H)-yl)methyl)-3,4-dihydrobenzo[f][1,4]oxazepin-5(2H)-one] | 120
